According to ChEMBL document CHEMBL4888484, “Replenishing the malaria drug discovery pipeline: Screening and hit evaluation of the MMV Hit Generation Library 1 (HGL1) against asexual blood stage Plasmodium falciparum ,using a nano luciferase reporter read-out” (2022):
The campaign covered roughly 150,000 compounds. About 540 (0.36%) showed an effect of 50% or more. The list shows a part of the results.

What follows are molecules tested on Plasmodium falciparum (assay: Primary screen in NF54 nanoGlo assay, in single point, at 2uM, 72h; a lower Z score goes with more inhibition). Conditions: timepoint 72 hour.
Assay type: functional, Erythrocyte

Row | SMILES | % Inhibition | Z score
1 | Cc1cnc(-n2ncc(C(=O)N3CCN(C(C)C)CC3)c2C(C)C)nc1-c1ccc(F)cc1 | -3% | 0.64
2 | CCc1c(C)nc(C)nc1N1CCC2(CCC(=O)N(Cc3cccnc3)C2)CC1 | -10% | 1.24
3 | CNC(=O)[C@@H]1CN(C(=O)c2cc(-c3cc(C)ccc3C)n[nH]2)C[C@H]1CO | -4% | 0.54
4 | CNS(=O)(=O)Nc1ccc(NS(=O)(=O)c2ccsc2)cc1 | 1% | -0.13
5 | CCC=C(C)C(=O)N1CC(C)OC(C)C1 (stereo not given) | -5% | 0.5
6 | CCOc1ccc(N2C[C@@H](C(=O)N3CCN(c4ccccn4)CC3)CC2=O)cc1 | -5% | 0.69
7 | Cc1cnc(CNc2cccc(F)c2)nc1 | 0% | 0
8 | O=S(=O)(NCC#CCN1CCc2ccccc2C1)c1cccnc1 | 11% | -1.22
9 | Cc1cc(-c2cc3c(c(OCC4(C)COC4)c2)OCCNC3)nc2cc(F)ccc12 | -4% | 0.77
10 | O=C1CCNC(=O)N1CCOc1ccc(F)cc1 | 4% | -0.41
11 | CC(C)c1noc([C@H](C)n2ccnc2-c2ccnc3ccccc23)n1 | -20% | 2.48
12 | CC12CCC(C(=O)Nc3ccncc3)(CC1O)C2(C)C (stereo not given) | -6% | 0.77
13 | O=C(NCC(F)(F)F)Nc1ccncc1 | -15% | 2.08
14 | CCOC(=O)c1c(C)[nH]c(C)c1-c1csc(NCCOC)n1 | 17% | -2.69
15 | Cc1c(NC(=O)COC2CCCCC2)c(=O)n(-c2ccccc2)n1C | -11% | 1.77
16 | CC(C)=CCN1C(=O)[C@@H]2CC[C@H]1CN(C(=O)Cn1ccc(=O)[nH]c1=O)C2 | -8% | 1.51
17 | C[C@H]1CCCN(Cc2ccccc2CNc2cncc(-n3cccn3)n2)C1 | 11% | -1.32
18 | CCc1ncc(CN[C@@H](CO)c2ccccc2F)s1 | -9% | 0.83
19 | CS(=O)(=O)N(CCN1CCOCC1)C1CN(S(=O)(=O)c2cccs2)C1 | 0% | -0.06
20 | CCn1cc(CN(C)c2ccncc2F)c(C)n1 | -10% | 1.03
21 | Cc1ccc(-c2cc(NC(=O)C3CCN(C4CC4)CC3)[nH]n2)o1 | -8% | 0.99
22 | C[C@H]1COC(C)(C)CN1C(=O)c1ncn(C(C)(C)C)n1 | -10% | 1.34
23 | CCOc1cc2c(cc1CN1C[C@@H]3CC[C@H](C1)C(=O)N3)CCC2 | -6% | 0.73
24 | N#Cc1ccc(N2CC(c3cccnc3)C2)nc1 | -8% | 1.18
25 | Cc1c(NC(=O)N[C@@H](C)c2cc3ccccc3o2)c(=O)n(-c2ccccc2)n1C | -8% | 1.11
26 | COc1ccc(C(=O)N2Cc3cccnc3C2)cn1 | -15% | 1.78
27 | Cc1c(-c2cc(C3CCNCC3)c(C#N)c(N)n2)c2ccccc2n1C | 4% | -0.71
28 | O=S1(=O)N=C(NCc2ccc(Cn3cccn3)cc2)c2ccccc21 | -1% | 0.12

Row | SMILES | % Inhibition | Z score
29 | CCN(CCc1ccccc1)Cc1nc(-c2cccnc2)no1 | -20% | 2.48
30 | CCCNC(=O)N1C[C@@H]2Oc3ncccc3S(=O)(=O)N[C@@H]2C1 | -16% | 3.18
31 | Cn1ncc(CNC(=O)CC2CCC2)c1NC(=O)CC1CCC1 | 32% | -3.59
32 | O=C(NCCc1cccs1)C(F)(F)F | -2% | 0.25
33 | C[C@H]1CN(CCN2CCOC2=O)CC(C)(C)O1 | -7% | 1
34 | O=C(O)c1nccn1CNc1ccncc1 | 38% | -4.89
35 | CCN1CC[C@H](N(C)C(=O)CNc2ccccc2)C1 | 5% | -0.65
36 | CC(C)N(C)Cc1nnnn1CC(=O)N1CCC[C@H](C(=O)c2ccccc2)C1 | -9% | 1.22
37 | CN(Cc1ccccc1)C(=O)c1nn2c(C(F)(F)F)c3c(nc2c1Cl)-c1ccccc1CC3 | 2% | -0.36
38 | Cn1nccc1C1CC2CCC(C1)N2S(=O)(=O)c1cccc(N)c1 (stereo not given) | -6% | 1.21
39 | O=c1[nH]c2ccccc2nc1[C@H](c1ccccc1)[n+]1ccccc1 | -3% | 0.23
40 | O[C@@H]1COC2(C1)CN(Cc1ccc(OC(F)(F)F)cc1)C2 | 0% | -0.02
41 | CCN(C(=O)CCN1C(=O)c2ccccc2C1=O)c1ccccc1 | -11% | 1.41
42 | O=C(CCc1cccs1)N[C@H]1COCC[C@@H]1Oc1ccc(CO)cc1 | -18% | 1.59
43 | O=C1OCC2(CCN(C(=O)N[C@H]3c4ccccc4C[C@@H]3O)CC2)O1 | 1% | -0.18
44 | COc1cccc(CNC(=O)Cn2c(N3CCN(c4ccccc4)CC3)nc(C)cc2=O)c1 | -9% | 1.68
45 | Cc1noc(COc2ccc(C(=O)N[C@H]3CCc4cc(C#N)ccc43)cn2)n1 | 32% | -3.66
46 | Cc1noc(C2CCN(C(=O)c3ccc(N4CCN(C(C)C)CC4)cc3)CC2)n1 | 6% | -0.8
47 | O=C(NCc1ccnc(-n2cncn2)c1)N1CCC[C@H]1C(F)F | -6% | 0.91
48 | CN(CC(=O)N(C)c1ccccc1)CC1(CO)CCCC1 | -24% | 2.29
49 | CCc1nc(C)cc(N2C[C@@H]3OC(=O)N(C4CCN(C(C)C)CC4)[C@@H]3C2)n1 | -5% | 0.87
50 | C[C@@H](Cn1ccnc1-c1nc2ccccc2[nH]1)Oc1cccnc1 | -5% | 1
51 | CC(C)(C)OC(=O)N1C2CCC1CC(NC(=O)c1ccoc1)C2 (stereo not given) | -9% | 1.65
52 | COCC[C@H](C)NC(=O)N1CCC(C)(C)C1 | -17% | 1.68
53 | CCC1CN(C(=O)C(C)S(C)(=O)=O)CC1N1CCOCC1 (stereo not given) | -1% | 0.08
54 | C#CCNC(=O)[C@H](C)Oc1ccc(C)c(F)c1 | -9% | 1.67
55 | C[C@@H](CNC(=O)NCCc1nccn1C(F)F)Oc1ccccc1 | -8% | 0.77
